Here are results for nine molecules from US20100260668A1 (published 2010).

First the molecules themselves.
B1: DVD517 (bispecific antibody, human IgG1, kappa, lambda)
heavy: EVQLQQSGPELEKPGASVKISCKASGYSFTGYNMNWVKQSNGKSLEWIGNIDPYFGGTNYNQKFKGKATLTVDKSSSTAYMQLKSLTSEDSAVYYCARNYDYDGGCFDYWGQGTTLTVSSASTKGPSVFPLAPEVQLVESGGGLVQPGGSLRLSCAASGYTFTNYGMNWVRQAPGKGLEWVGWINTYTGEPTYAADFKRRFTFSLDTSKSTAYLQMNSLRAEDTAVYYCAKYPHYYGSSHWYFDVWGQGTLVTVSS[omitted - human IgG1 constant region]
light: QAVVTQESALTTSPGETVTLTCRSSTGAVTTSNYANWVQEKPDHLFTGLIGGTNNRAPGVPARFSGSLIGDKAALTITGAQTEDEAIYFCALWYSNHWVFGGGTKLTVLGQPKAAPSVTLFPPDIQMTQSPSSLSASVGDRVTITCSASQDISNYLNWYQQKPGKAPKVLIYFTSSLHSGVPSRFSGSGSGTDFTLTISSLQPEDFATYYCQQYSTVPWTFGQGTKVEIKRTVAAPSVFIFPPSDEQLKSGTASVVCLLNNFYPREAKVQWKVDNALQSGNSQESVTEQDSKDSTYSLSSTLTLSKADYEKHKVYACEVTHQGLSSPVTKSFNRGEC
notes: DVD-Ig; N-term; VD DLL4 (AB073), C-term; VD VEGF (AB014); HC linker long, LC linker long; also called DVD-Ig DVD517; DVD517H
B2: DVD487 (bispecific antibody, human IgG1, kappa)
heavy: EVQLQQSGPELVKPGASVKMSCKASGYTFTSYVINWVKQKPGQGLEWIGLINPYNDGTKYNEKFKVKATLTSDKSSSTAYMELSSLTSEDSAVYYCASYYYGSRYYFDYWGQGTTLTVSSASTKGPEVQLVESGGGLVQPGGSLRLSCAASGYTFTNYGMNWVRQAPGKGLEWVGWINTYTGEPTYAADFKRRFTFSLDTSKSTAYLQMNSLRAEDTAVYYCAKYPHYYGSSHWYFDVWGQGTLVTVSS[omitted - human IgG1 constant region]
light: DIQMTQSSSYLSVSLGGRVTITCKASDHINNWLAWYQQKPGNAPRLLISGATSLETGVPSRFSGSGSGKDYTLSITSLQTEDVATYYCQQYWSIPLTFGAGTKLELKRTVAAPDIQMTQSPSSLSASVGDRVTITCSASQDISNYLNWYQQKPGKAPKVLIYFTSSLHSGVPSRFSGSGSGTDFTLTISSLQPEDFATYYCQQYSTVPWTFGQGTKVEIKRTVAAPSVFIFPPSDEQLKSGTASVVCLLNNFYPREAKVQWKVDNALQSGNSQESVTEQDSKDSTYSLSSTLTLSKADYEKHKVYACEVTHQGLSSPVTKSFNRGEC
notes: DVD-Ig; N-term; VD DLL4 (AB072), C-term; VD VEGF (AB014); HC linker short, LC linker short; 4'; 3'; also called DVD-Ig DVD487; DVD487H
B3: DVD469 (bispecific antibody, human IgG1, kappa)
heavy: EVQLVESGGGLVQPGGSLRLSCAASGFTFTDNWISWVRQAPGKGLEWVGYISPNSGFTYYADSVKGRFTISADTSKNTAYLQMNSLRAEDTAVYYCARDNFGGYFDYWGQGTLVTVSSASTKGPSVFPLAPEVQLVESGGGLVQPGGSLRLSCAASGYTFTNYGMNWVRQAPGKGLEWVGWINTYTGEPTYAADFKRRFTFSLDTSKSTAYLQMNSLRAEDTAVYYCAKYPHYYGSSHWYFDVWGQGTLVTVSS[omitted - human IgG1 constant region]
light: DIQMTQSPSSLSASVGDRVTITCRASQDVSTAVAWYQQKPGKAPKLLIYSASFLYSGVPSRFSGSGSGTDFTLTISSLQPEDFATTYYCQQSYTGTVTFGQGTKVEIKRTVAAPSVFIFPPDIQMTQSPSSLSASVGDRVTITCSASQDISNYLNWYQQKPGKAPKVLIYFTSSLHSGVPSRFSGSGSGTDFTLTISSLQPEDFATYYCQQYSTVPWTFGQGTKVEIKRTVAAPSVFIFPPSDEQLKSGTASVVCLLNNFYPREAKVQWKVDNALQSGNSQESVTEQDSKDSTYSLSSTLTLSKADYEKHKVYACEVTHQGLSSPVTKSFNRGEC
notes: DVD-Ig; N-term; VD DLL4 (AB015), C-term; VD VEGF (AB014); HC linker long, LC linker long; also called DVD-Ig DVD469; DVD469H
B4: DVD044 (bispecific antibody, human IgG1, kappa)
heavy: EVQLVESGGGLVQPGGSLRLSCAASGFTFTDNWISWVRQAPGKGLEWVGYISPNSGFTYYADSVKGRFTISADTSKNTAYLQMNSLRAEDTAVYYCARDNFGGYFDYWGQGTLVTVSSASTKGPEVQLVESGGGLVQPGGSLRLSCAASGYTFTNYGMNWVRQAPGKGLEWVGWINTYTGEPTYAADFKRRFTFSLDTSKSTAYLQMNSLRAEDTAVYYCAKYPHYYGSSHWYFDVWGQGTLVTVSS[omitted - human IgG1 constant region]
light: DIQMTQSPSSLSASVGDRVTITCRASQDVSTAVAWYQQKPGKAPKLLIYSASFLYSGVPSRFSGSGSGTDFTLTISSLQPEDFATTYYCQQSYTGTVTFGQGTKVEIKRTVAAPDIQMTQSPSSLSASVGDRVTITCSASQDISNYLNWYQQKPGKAPKVLIYFTSSLHSGVPSRFSGSGSGTDFTLTISSLQPEDFATYYCQQYSTVPWTFGQGTKVEIKRTVAAPSVFIFPPSDEQLKSGTASVVCLLNNFYPREAKVQWKVDNALQSGNSQESVTEQDSKDSTYSLSSTLTLSKADYEKHKVYACEVTHQGLSSPVTKSFNRGEC
notes: DVD-Ig; N-term; VD DLL4 (AB015), C-term; VD VEGF (AB014); HC linker short, LC linker short; also called DVD-Ig DVD044; DVD044H
B5: DVD481 (bispecific antibody, human IgG1, kappa)
heavy: B4 heavy
light: B3 light
notes: DVD-Ig; N-term; VD DLL4 (AB015), C-term; VD VEGF (AB014); HC linker short, LC linker long; also called DVD-Ig DVD481; DVD481H
B6: DVD475 (bispecific antibody, human IgG1, kappa)
heavy: B3 heavy
light: B4 light
notes: DVD-Ig; N-term; VD DLL4 (AB015), C-term; VD VEGF (AB014); HC linker long, LC linker short; also called DVD-Ig DVD475; DVD475H
B7: DVD511 (bispecific antibody, human IgG1, kappa)
heavy: EVQLQQSGPELEKPGASVKISCKASGYSFTGYNMNWVKQSNGKSLEWIGNIDPYFGGTNYNQKFKGKATLTVDKSSSTAYMQLKSLTSEDSAVYYCARNYDYDGGCFDYWGQGTTLTVSSASTKGPEVQLVESGGGLVQPGGSLRLSCAASGYTFTNYGMNWVRQAPGKGLEWVGWINTYTGEPTYAADFKRRFTFSLDTSKSTAYLQMNSLRAEDTAVYYCAKYPHYYGSSHWYFDVWGQGTLVTVSS[omitted - human IgG1 constant region]
light: QAVVTQESALTTSPGETVTLTCRSSTGAVTTSNYANWVQEKPDHLFTGLIGGTNNRAPGVPARFSGSLIGDKAALTITGAQTEDEAIYFCALWYSNHWVFGGGTKLTVLGQPKAAPDIQMTQSPSSLSASVGDRVTITCSASQDISNYLNWYQQKPGKAPKVLIYFTSSLHSGVPSRFSGSGSGTDFTLTISSLQPEDFATYYCQQYSTVPWTFGQGTKVEIKRTVAAPSVFIFPPSDEQLKSGTASVVCLLNNFYPREAKVQWKVDNALQSGNSQESVTEQDSKDSTYSLSSTLTLSKADYEKHKVYACEVTHQGLSSPVTKSFNRGEC
notes: DVD-Ig; N-term; VD DLL4 (AB073), C-term; VD VEGF (AB014); HC linker short, LC linker short; 3'; 4'; also called DVD-Ig DVD511; DVD511H
B8: DVD529 (bispecific antibody, human IgG1, kappa, lambda)
heavy: B7 heavy
light: B1 light
notes: DVD-Ig; N-term; VD DLL4 (AB073), C-term; VD VEGF (AB014); HC linker short, LC linker long; also called DVD-Ig DVD529; DVD529H
B9: DVD523 (bispecific antibody, human IgG1, kappa)
heavy: B1 heavy
light: B7 light
notes: DVD-Ig; N-term; VD DLL4 (AB073), C-term; VD VEGF (AB014); HC linker long, LC linker short; also called DVD-Ig DVD523; DVD523H

The target of this test is T1, DLL4 (DLL ECD His tag, R&D 1506-D4-050) (UniProt Q9NR61 part only).
T1 construct: extracellular domain; bought
The experiment in a line: BIACORE (SPR), DVD-Ig against DLL4.
Turning to B1, the Kd was determined as 1.48 nM, the koff amounted to 0.00176 s⁻¹ and the kon worked out at 1.19e+06 M⁻¹ s⁻¹.
Taken in the same sequence, the figures for B2 were 0.288 nM, 8.19e-05 s⁻¹ and 284000 M⁻¹ s⁻¹.
Taken in the same sequence, the figures for B3 were 0.515 nM, 7.27e-05 s⁻¹ and 141000 M⁻¹ s⁻¹.
Taken in the same sequence, the figures for B4 were 0.216 nM, 0.000145 s⁻¹ and 669000 M⁻¹ s⁻¹.
B5 yielded a Kd of 1.29 nM, a koff of 0.000241 s⁻¹ and an association rate constant (kon) of 187000 M⁻¹ s⁻¹.
Molecule B6 gave a Kd of 0.431 nM, a koff of 0.000195 s⁻¹ and a kon of 452000 M⁻¹ s⁻¹.
Taken in the same sequence, the figures for B7 were 1.43 nM, 0.00173 s⁻¹ and 1.21e+06 M⁻¹ s⁻¹.
With B8, the Kd came out at 1.8 nM, the koff worked out at 0.00151 s⁻¹ and the kon was 840000 M⁻¹ s⁻¹.
Taken in the same sequence, the figures for B9 were 1.93 nM, 0.00209 s⁻¹ and 1.08e+06 M⁻¹ s⁻¹.
